# Data reported in the supplement of paper PMC8728848.
# The list shows a part of the results.
# B1: Nc3LysM (protein)
# chain: QFTVPPDTTAEPNTIKTCTWWHVAGSGDSCTSIASTYGITSEQFARWDMETTDSPKNPSVATACKLTVGNSYCIENNFGQDDPPTPSISSSTLIGTATTSTTASTTTGNGISTPTPIQEGMETATTTTSSGNGITTPTPTQAGMETVGNCDRFHLVKSGDQCGTIASTYGITLANFYSWNPAVGTSCQSLWLDTYVCVRTIGFVPPKTTTTTTKKPTSTTSAGGVATPTPTQPGMETVSGCKKFHKGRGNVSTVASGDQCGTIATRYGISLANFYSWNPAVGSSCQTLWLDYYVCVGR
# How the values were obtained:
# Test in all cases: glycan array binding signal (z-score within array); higher = stronger binding
# Conditions in all cases: glycan notation: IUPAC condensed, linker removed
# Gal3S6S(b1-4)GlcNAc = target: Gal3S6S(b1-4)GlcNAc
# Outline: (§1)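 Negative Z-scores can be read as non-binding. The Z-score is calculated within each array and then averaged across arrays of one protein sequence at different concentrations or buffers and across linkers. Arrays, 3228 in all, were curated from the Consortium for Functional Glycomics database and kept only where the protein sequence was available.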
# Gal3S6S(b1-4)GlcNAc6S = target: Gal3S6S(b1-4)GlcNAc6S
# Outline: as §1
# Gal4S(b1-4)GlcNAc = target: Gal4S(b1-4)GlcNAc
# Outline: as §1
# Gal4S6S(b1-4)GlcNAc = target: Gal4S6S(b1-4)GlcNAc
# Outline: as §1
# Gal6P(b1-4)GlcNAc = target: Gal6P(b1-4)GlcNAc
# Outline: as §1
# Gal6S(b1-3)GlcNAc = target: Gal6S(b1-3)GlcNAc
# Outline: as §1
# Gal6S(b1-3)GlcNAc6S = target: Gal6S(b1-3)GlcNAc6S
# Outline: as §1
# Gal6S(b1-4)Glc = target: Gal6S(b1-4)Glc
# Outline: as §1
# Gal6S(b1-4)Glc6S = target: Gal6S(b1-4)Glc6S
# Outline: as §1
# Gal6S(b1-4)GlcNAc = target: Gal6S(b1-4)GlcNAc
# Outline: as §1
# Gal6S(b1-4)GlcNAc6S = target: Gal6S(b1-4)GlcNAc6S
# Outline: as §1
# GalNAc(a1-3)Gal = target: GalNAc(a1-3)Gal
# Outline: as §1
# GalNAc(a1-3)GalNAc = target: GalNAc(a1-3)GalNAc
# Outline: as §1
# [1] = target: GalNAc(a1-3)GalNAc(b1-3)Gal(a1-4)Gal(b1-4)Glc
# Outline: as §1
# [2] = target: GalNAc(a1-3)GalNAc(b1-3)Gal(a1-4)Gal(b1-4)GlcNAc
# Outline: as §1
# GalNAc(b1-3)Gal = target: GalNAc(b1-3)Gal
# Outline: as §1
# [3] = target: GalNAc(b1-3)Gal(a1-4)Gal(b1-4)GlcNAc
# Outline: as §1
# [4] = target: GalNAc(b1-3)Gal(a1-4)Gal(b1-4)GlcNAc(b1-3)Gal(b1-4)Glc
# Outline: as §1
# [5] = target: GalNAc(b1-3)Gal(a1-6)Gal(b1-4)Glc
# Outline: as §1
# GalNAc(b1-3)GalNAc = target: GalNAc(b1-3)GalNAc
# Outline: as §1
# GalNAc(b1-3)GlcNAc = target: GalNAc(b1-3)GlcNAc
# Outline: as §1
# GalNAc(b1-4)Gal(b1-4)Glc = target: GalNAc(b1-4)Gal(b1-4)Glc
# Outline: as §1
# GalNAc(b1-4)GlcNAc = target: GalNAc(b1-4)GlcNAc
# Outline: as §1
# [6] = target: GalNAc(b1-4)GlcNAc(b1-2)Man
# Outline: as §1
# [7] = target: GalNAc(b1-4)GlcNAc(b1-2)Man(a1-3)[GalNAc(b1-4)GlcNAc(b1-2)Man(a1-6)]Man(b1-4)GlcNAc(b1-4)GlcNAc
# Outline: as §1
# [8] = target: GalNAc(b1-4)GlcNAc(b1-3)GalNAc(b1-4)GlcNAc
# Outline: as §1
# GalNAc(b1-4)GlcNAc6S = target: GalNAc(b1-4)GlcNAc6S
# Outline: as §1
# GalNAc(b1-6)GalNAc = target: GalNAc(b1-6)GalNAc
# Outline: as §1
# GalNAc3S(b1-4)GlcNAc = target: GalNAc3S(b1-4)GlcNAc
# Outline: as §1
# GalNAc3S(b1-4)GlcNAc3S = target: GalNAc3S(b1-4)GlcNAc3S
# Outline: as §1
# [9] = target: GalNAc3S(b1-4)[Fuc(a1-3)]GlcNAc
# Outline: as §1
# GalNAc4S6S(b1-4)GlcNAc = target: GalNAc4S6S(b1-4)GlcNAc
# Outline: as §1
# GalNAc6S(b1-4)GlcNAc = target: GalNAc6S(b1-4)GlcNAc
# Outline: as §1
# Glc(a1-4)Glc = target: Glc(a1-4)Glc
# Outline: as §1
# [10] = target: Glc(a1-4)Glc(a1-4)Glc(a1-4)Glc
# Outline: as §1
# Glc(a1-6)Glc(a1-6)Glc = target: Glc(a1-6)Glc(a1-6)Glc
# Outline: as §1
# [11] = target: Glc(a1-6)Glc(a1-6)Glc(a1-6)Glc
# Outline: as §1
# Glc(b1-4)Glc = target: Glc(b1-4)Glc
# Outline: as §1
binder,measurement,setting,value
B1,glycan array binding signal (z-score),Gal3S6S(b1-4)GlcNAc,-0.145
same,glycan array binding signal (z-score),Gal3S6S(b1-4)GlcNAc6S,-0.126
same,glycan array binding signal (z-score),Gal4S(b1-4)GlcNAc,-0.249
same,glycan array binding signal (z-score),Gal4S6S(b1-4)GlcNAc,-0.245
same,glycan array binding signal (z-score),Gal6P(b1-4)GlcNAc,-0.273
same,glycan array binding signal (z-score),Gal6S(b1-3)GlcNAc,0.119
same,glycan array binding signal (z-score),Gal6S(b1-3)GlcNAc6S,-0.161
same,glycan array binding signal (z-score),Gal6S(b1-4)Glc,-0.123
same,glycan array binding signal (z-score),Gal6S(b1-4)Glc6S,0.307
same,glycan array binding signal (z-score),Gal6S(b1-4)GlcNAc,-0.15
same,glycan array binding signal (z-score),Gal6S(b1-4)GlcNAc6S,-0.294
same,glycan array binding signal (z-score),GalNAc(a1-3)Gal,0.117
same,glycan array binding signal (z-score),GalNAc(a1-3)GalNAc,0.061
same,glycan array binding signal (z-score),[1],-0.158
same,glycan array binding signal (z-score),[2],-0.276
same,glycan array binding signal (z-score),GalNAc(b1-3)Gal,0.084
same,glycan array binding signal (z-score),[3],-0.56
same,glycan array binding signal (z-score),[4],-0.078
same,glycan array binding signal (z-score),[5],-0.079
same,glycan array binding signal (z-score),GalNAc(b1-3)GalNAc,-0.227
same,glycan array binding signal (z-score),GalNAc(b1-3)GlcNAc,-0.067
same,glycan array binding signal (z-score),GalNAc(b1-4)Gal(b1-4)Glc,-0.085
same,glycan array binding signal (z-score),GalNAc(b1-4)GlcNAc,-0.055
same,glycan array binding signal (z-score),[6],-0.236
same,glycan array binding signal (z-score),[7],0.001
same,glycan array binding signal (z-score),[8],-0.153
same,glycan array binding signal (z-score),GalNAc(b1-4)GlcNAc6S,-0.178
same,glycan array binding signal (z-score),GalNAc(b1-6)GalNAc,-0.11
same,glycan array binding signal (z-score),GalNAc3S(b1-4)GlcNAc,-0.256
same,glycan array binding signal (z-score),GalNAc3S(b1-4)GlcNAc3S,0.082
same,glycan array binding signal (z-score),[9],-0.103
same,glycan array binding signal (z-score),GalNAc4S6S(b1-4)GlcNAc,0.011
same,glycan array binding signal (z-score),GalNAc6S(b1-4)GlcNAc,-0.001
same,glycan array binding signal (z-score),Glc(a1-4)Glc,0.185
same,glycan array binding signal (z-score),[10],-0.019
same,glycan array binding signal (z-score),Glc(a1-6)Glc(a1-6)Glc,-0.143
same,glycan array binding signal (z-score),[11],0.326
same,glycan array binding signal (z-score),Glc(b1-4)Glc,-0.284
